# Reference: PubChem BioAssay (NCI)
# “And” between values parts separate entries of the source, which are not always exact repeats. Equal values may be shown once.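 Test compounds were applied to cells in 96-well plates for 48 hours at 5 doses. Here, GI50 denotes the concentration required for 50% inhibition of growth. At the TGI there is no net growth.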
# System: NCI-H322M lung
# Assay: growth of human tumour cells (NCI), 48 h
SMILES,TGI,GI50 [µM]
O=[N+]([O-])c1ccc(Cl)c2c([N+](=O)[O-])cccc12,> 10 µM,
C[C@]12Cc3cn[nH]c3C(=O)C1CC[C@@H]1C2CC[C@@]2(C)C1CC[C@@H]2O (stereo partly specified),> 100 µM,
Cc1ccccc1-c1nc2c(N)nc(N)nc2nc1N,> 100 µM,
COc1ccc2sc3c(NCCCN)nc4ccccc4c3c(=O)c2c1,3.03 µM,1.6
COC(=O)[C@]1(C)CCC[C@@]2(C)C1CC[C@]13C=C(C(C)C)[C@H](CC21)CC3(Cl)C#N (stereo partly specified),> 100 µM,
Cc1ccc2c(-c3ccnc(Nc4ccc5c(c4)OCCO5)n3)c(-c3ccc(C(F)(F)F)cc3)nn2n1,> 25 µM,16.7
O=C(c1ccco1)N(C(=O)N1CCCCC1)c1ccccc1,> 100 µM,
Nc1ncnc2c1nnn2C1C=CC(CP(=O)(O)O)C1 (stereo unspecified),> 100 µM,
CN(C)c1ccc(/C=C(\NC(=O)c2ccccc2)C(=O)NC(CC(=O)O)C(=O)O)cc1 (stereo unspecified),> 100 µM,
COc1cc2oc(-c3ccc(O)cc3)cc(=O)c2c(O)c1C1OC(CO)C(O)C(O)C1O (stereo unspecified),> 100 µM,
COc1cc2c(cc1Nc1nc(N3CCc4ccccc43)c3cc[nH]c3n1)N(C(=O)CN(C)C)CC2,8.34 µM,3.63
C[C@@H]1CC[C@@]2(C)C(C(=O)O)=CCCC2[C@@]1(C)CC(=O)c1ccoc1 (stereo partly specified),> 25 µM,
CCc1ccccc1NC(=O)c1cccc([N+](=O)[O-])c1O,85.6 µM,
CCCCCCN(CCCCCC)C(=S)N/N=C(\C)c1ccccn1,2.57 µM,
COc1cc2nc(-c3ccc(Cl)cc3)cc(OCCCN3CCOCC3)c2cc1OC,> 100 µM,> 100
c1c[nH]c(-c2cccc3nsnc23)c1,> 100 µM,
CCCCCCCCCCCCCCCCCCOc1ccccc1CC(=O)NCC[N+]1(C)CCOCC1,7.61 µM,2.41
O=C1/C(=C\c2ccccc2)CN(C(=O)CCN2CCCCC2)C/C1=C/c1ccccc1,7.64 µM,
CN[C@@H](C)C(=O)N[C@H]1CN(S(=O)(=O)c2cccc(S(=O)(=O)N3CC[C@H]4CC[C@@H](C(=O)NC(c5ccccc5)c5ccccc5)N4C(=O)[C@@H](NC(=O)[C@H](C)NC)C3)c2)CC[C@H]2CC[C@@H](C(=O)NC(c3ccccc3)c3ccccc3)N2C1=O,29.2 µM,15.7
COc1nc2c(c(O)c(C)c(=O)n2OC2OCC(OC(C)=O)C(OC(C)=O)C2OC(C)=O)c(=O)n1C (stereo unspecified),> 100 µM,
CC1(C)N=C(N)N=C(N)N1c1ccc(CCC(=O)Nc2ccc(S(=O)(=O)F)cc2)cc1,> 100 µM,4.76
COC(=O)CNC(=O)C(CSC(=O)OCC1c2ccccc2-c2ccccc21)NC(=O)CCC(NC(=O)OCC1c2ccccc2-c2ccccc21)C(=O)OC (stereo unspecified),67.9 µM,
CCCCCOc1ccc(/C=N/Nc2cc(C)nc3ccc(Cl)cc23)cc1,3.14 µM,1.74

SMILES,TGI,GI50 [µM]
CC(C)Oc1cccc(N2C(n3ccnc3)=Nc3ccncc3S2(=O)=O)c1,32 µM,
CCNc1nc(O)c(/C=C2\C=Nc3ncccc32)s1,> 100 µM,2.56
CC1=CC2C3(C)C(C)(C(C)=CP3(=O)c3c(C(C)C)cc(C(C)C)cc3C(C)C)C1P2(=O)c1c(C(C)C)cc(C(C)C)cc1C(C)C (stereo unspecified),8.56 µM,
O=c1c(F)cn2c(=O)n1CCCCCCCn1c(=O)c(F)cn(c1=O)CCCCCCC2,> 100 µM,
Cc1cc(O)c2c(c1)C(=O)C=CC2=O,35.5 µM and > 54.9 µM,
CC(=O)O[C@@H](c1nccn1Cc1ccccc1)[C@H]1OC(C)(C)O[C@@H]1[C@H]1COC(C)(C)O1,> 100 µM,
Nc1ncnc2c1N=C(c1ccc3c(c1)OCO3)CC(c1ccc(Cl)cc1)N2 (stereo unspecified),> 100 µM,16.9
O=C1C=CC2(O[C@H](c3ccccc3)[C@@H](c3ccccc3)O2)[C@H](Sc2ccccc2O)C1,14.4 µM,
c1ccc(C2=NC3OC2c2ccccc23)cc1 (stereo unspecified),> 10 µM,
O=[N+]([O-])c1cccc(C2=NN(c3ccccc3)C3c4cc(Br)ccc4OCC23)c1 (stereo unspecified),> 100 µM,
COc1ccc(CNc2cnc3ccc(N)cc3n2)cc1,> 100 µM,
COc1cc(/C=C2\C[C@H]3[C@@H]4CCc5cc(OCCN6CCCC6)ccc5[C@H]4CC[C@]3(C)C2=O)cc(OC)c1OC,10.1 µM,
O=C(NCCNCCO)c1ccc2c(c1)oc1cc3ccccc3c(=O)n12,8.2 µM,0.112
c1ccc(-c2c(-c3ccccc3)[n+](Cc3ccc4ccccc4c3)c(-c3ccc(-c4nc5ccccc5s4)cc3)n2Cc2ccc3ccccc3c2)cc1,1.34 µM,0.327
Cc1ccc(O)cc1Nc1ccnc2ccc(S(C)(=O)=O)cc12,> 25 µM,5.42
O=C(/C=C/C12c3ccccc3C(c3ccccc31)C1C(=O)NC(=O)C12)c1ccccn1 (stereo unspecified),2.86 µM,1.45
Cc1nc2ccc(Cl)cc2c(-n2ccnc2)c1CCn1ccnc1,> 100 µM,
O=C(NC1C(=O)NNC1c1cccc([N+](=O)[O-])c1)c1ccccc1 (stereo unspecified),> 100 µM,
O=C1NC(=O)c2c1n(Cc1ccccc1)c(=O)n2Cc1ccccc1,> 100 µM,
O=c1c2c3c(sc2[nH]c(=S)n1-c1ccccc1)CCCc1ccc([N+](=O)[O-])cc1-3,> 100 µM,
O=C(CCc1cc(O)cc(O)c1)NCCc1cc(OCc2ccccc2)cc(OCc2ccccc2)c1,36.9 µM,
OCc1cc2c(cn1)[nH]c1ccc(NCc3ccccc3)cc12,> 100 µM,
O=c1c2ccccc2sc2c(CO)ccc(NCCN3CCCCC3)c12,13.3 µM,

SMILES,TGI,GI50 [µM]
[N-]=[N+]=CC(=O)C1CCCN1C(=O)c1ccccc1 (stereo unspecified),> 10 µM,
C[C@]12CC[C@H]3[C@@H](CCC4=CC(=O)CC[C@@]43C)[C@@H]1CC[C@@H]2c1csc(N)n1,29.4 µM,13.2
COc1ccc(C)cc1N1C(=O)C2ON(Cc3ccc(CC(N)=O)cc3)C(c3c4ccccc4c(Cl)c4ccccc34)C2C1=O (stereo unspecified),> 100 µM,
FC(F)(F)Oc1cccc(-c2cc(NCCCCCCNc3cc(-c4cccc(OC(F)(F)F)c4)nc4ccc(N5CCCC5)cc34)c3cc(N4CCCC4)ccc3n2)c1,3.18 µM,1.77
CN(O)C(=O)/C=C/c1ccc(OCc2cccc(Cl)c2)cc1,66.6 µM,
COc1ccc2nc(NC(=O)/C(C#N)=C/c3ccccc3)sc2c1,> 100 µM,
COc1ccc2ccc3oc(=O)c(C)cc3c2c1,> 100 µM,
CN(C)CCNC(=O)c1cccc2c1Nc1ccccc1S2,27.8 µM,
O=c1oc2ccc3ccccc3c2cc1-c1cn2ccsc2n1,> 100 µM,
S=C(Cc1ccc2c(c1)Sc1ccccc1O2)N1CCOCC1,> 100 µM,
CCc1c(O)cc(=O)oc1-c1ccc(OC)c(OC)c1,> 100 µM,
COc1cc2c(N3CCN(C(=O)Nc4ccc(OC(C)C)cc4)CC3)ncnc2cc1OCCCN1CCCCC1,> 100 µM,30.8
COC(=O)C(Cc1cn(C(C)n2cc(CC(NC(C)=O)C(=O)OC)c3ccccc32)c2ccccc12)NC(C)=O (stereo unspecified),> 100 µM,
O=C1NC2=C(CCCCC/C2=N\O)C12CCCCCC2,> 100 µM,
COc1ccc2c(c1)c(-c1nc(-c3c[nH]c4ncccc34)cs1)cn2CCCN1CCOCC1,8.2 µM,1.96
Cc1c(C(=N)C(C#N)C#N)c(=N)oc2c1ccc1ccccc12,> 100 µM,17.5
CSCC[C@@H](NC(=O)[C@H](CC(C)C)NC(=O)C(Cc1cnc[nH]1)NC(=O)CNC(=O)[C@@H](NC(=O)[C@H](C)NC(=O)[C@H](Cc1c[nH]c2ccccc12)NC(=O)[C@H](CCC(N)=O)NC(=O)[C@@H](N)CC(N)=O)C(C)C)C(N)=O (stereo partly specified),> 100 µM,
CCOC1C=CC(=O)C(CO)O1 (stereo unspecified),33.6 µM,
CN(C)C(=O)C(F)(F)C(c1ccc(F)cc1)C1C(=O)N(C)C(=O)N(C)C1=O (stereo unspecified),> 100 µM,
O=C(NC12CC3CCC1CC(C3)C2)[C@@H]1CCCN1C(=O)OCc1ccccc1 (stereo partly specified),> 100 µM,
Cc1cc([N+](=O)[O-])c(C)c2c1[nH]c1ccc(Cl)cc12,> 100 µM,
Cn1c2ccccc2n2c3ncccc3c(=O)c(C#N)c12,> 100 µM,
Cn1c2ccccc2c2ccc3c(c21)C(=O)c1ccc2c4ccccc4n(C)c2c1C3=O,> 100 µM,

SMILES,TGI,GI50 [µM]
O=C(ON=C1c2ccccc2C(Br)C(Br)c2ccccc21)c1ccccc1 (stereo unspecified),30 µM,
CO/N=C1\CC(NC(=O)C(F)(F)F)c2ccsc21 (stereo unspecified),> 100 µM,
CN(C)CCCC1(c2ccc(F)cc2)OCc2cc(-c3cccc4[nH]ccc34)ccc21 (stereo unspecified),3 µM,1.63
CCN(C)c1nc(N(C)CC)c2nc(N(C)CC)nc(N(C)CC)c2n1,> 100 µM,
COc1ccc2c(N)ncc(C#Cc3cc(C(=O)Nc4ccc(CN5CCN(C)CC5)c(C(F)(F)F)c4)cnc3C)c2c1,6.92 µM,1.91
OC1(c2ccc(Cl)c(C(F)(F)F)c2)CCN(CCCC(c2ccc(F)cc2)c2ccc(F)cc2)CC1,2.79 µM,1.18
CNC(=O)c1ncccc1Nc1nc(Nc2cc3c(cc2OC)CCCN3C(=O)CN(C)C)nc2[nH]ccc12,6.28 µM,0.953
NCCN1CCCCCc2ccccc21,> 10 µM,
CC(=O)Nc1nc(Cl)cc(NCC2(CO)CCC2)n1,> 100 µM,
CCOC(=O)c1nc(C)oc1C(F)(F)F,> 100 µM,
COC(=O)/C=C(/C=C1/C(C#N)=C(N)N(c2ccc(Cl)cc2)C1(C)/C(=C\C(=O)OC)C(=O)OC)C(=O)OC (stereo unspecified),> 100 µM,
COc1ccc(C2Oc3ccc(Cl)cc3C=C2[N+](=O)[O-])cc1 (stereo unspecified),> 100 µM,
COC1N(C2CC(O)C(CO)O2)C(=O)NC(=O)C1(F)Br (stereo unspecified),> 100 µM,> 5
COCC([C@@H](O)C(O)C(=O)NCC[C@@H](C)c1nc(/C=C/CC2OC3(C[C@H](O)C2C)OC(C(C[C@H](O)C(C)[C@H](O)C(C)/C=C(C)/C(C)=C/C=C/C(C)=C/C#N)OC)[C@@H](OP(=O)(O)O)C3(C)C)co1)N(C)C (stereo partly specified),0.000399 µM,
CC(=O)NNc1nc(C)c(C(=O)NNC(=O)C(=O)Nc2ccc([N+](=O)[O-])cc2[N+](=O)[O-])s1,> 100 µM,
COc1cc([C@@H]2c3cc4c(cc3[C@@H](NC(=O)c3ccc(C#N)cc3)C3COC(=O)[C@@H]32)OCO4)cc(OC)c1O (stereo partly specified),39.4 µM,
Cc1ccc2cccc(-c3cccc4ccccc34)c2n1,75.6 µM,
CCOC(=O)/C=C/c1nc(C#N)c(N)o1,> 100 µM,
O=C1[C@@H]2C(c3c(Cl)cccc3Cl)=NO[C@@H]2C(=O)N1c1ccc(Cc2ccc(N3C(=O)[C@H]4C(c5c(Cl)cccc5Cl)=NO[C@H]4C3=O)cc2)cc1,> 100 µM,
O=C(Nc1ccc(N=C=S)cc1Cl)c1cc(Br)cc(Br)c1O,61 µM,
Cc1nc(N)c(N2CCN(C#N)CC2)c(=O)[nH]1,> 100 µM,
CC1=C(C(=O)Nc2ccccc2)C(c2ccc(N(C)C)cc2)C(C(=O)Nc2ccccc2)=C(C)N1,> 100 µM,
COc1ccc(N=Nc2c(-c3c(OC)cc4occc4c3OC)[nH]c(=O)c(C#N)c2C)cc1,> 100 µM,
